Reference: PubChem BioAssay AID1468 (National Center for Advancing Translational Sciences (NCATS), 2008)
In all, about 280,000 compounds went through this assay and about 1,100 (0.39%) were called active. Inconclusive results, whose numbers are uncertain, are shown with a selection of clear calls. The call rests on the fitted dose curve; in most records, active means well fitted inhibition curve with a large enough effect; inconclusive means small, poorly fitted or top-dose-only effect, or effect the other way; inactive means flat fitted curve, though single readings scatter. Potencies of inconclusive entries are left out as doubtful fits.

Target: Microtubule-associated protein tau (Homo sapiens) (UniProt P10636)
UniProt P10636, sequence (P10636 whole entry, looked up): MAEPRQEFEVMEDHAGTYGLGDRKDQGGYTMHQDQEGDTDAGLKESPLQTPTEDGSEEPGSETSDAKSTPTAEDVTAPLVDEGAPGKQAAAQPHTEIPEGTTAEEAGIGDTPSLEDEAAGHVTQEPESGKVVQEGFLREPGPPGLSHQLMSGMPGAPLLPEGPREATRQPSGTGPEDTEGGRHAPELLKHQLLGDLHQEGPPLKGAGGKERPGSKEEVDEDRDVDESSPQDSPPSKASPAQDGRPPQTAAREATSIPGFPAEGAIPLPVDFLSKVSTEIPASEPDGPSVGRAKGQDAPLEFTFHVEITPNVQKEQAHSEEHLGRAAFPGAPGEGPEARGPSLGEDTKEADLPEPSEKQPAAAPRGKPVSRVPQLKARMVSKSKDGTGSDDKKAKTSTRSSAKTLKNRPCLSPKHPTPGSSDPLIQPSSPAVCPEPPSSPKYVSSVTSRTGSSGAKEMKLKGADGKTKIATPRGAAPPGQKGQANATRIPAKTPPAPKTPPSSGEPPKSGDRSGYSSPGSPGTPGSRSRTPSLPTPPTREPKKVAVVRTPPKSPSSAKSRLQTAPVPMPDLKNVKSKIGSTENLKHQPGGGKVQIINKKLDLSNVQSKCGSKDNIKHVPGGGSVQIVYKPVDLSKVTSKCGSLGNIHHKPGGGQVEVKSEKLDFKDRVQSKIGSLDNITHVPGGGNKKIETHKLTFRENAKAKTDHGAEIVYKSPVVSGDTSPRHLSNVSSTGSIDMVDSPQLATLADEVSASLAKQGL
Assay: qHTS for Inhibitors of Tau Fibril Formation, Fluorescence Polarization; further: nearly all actives have a fitted effect of over 55% in size
Conditions: K18 P301L tau heparin fibrillization, Alexa594 FP, 6 h; series mostly up to 57.7 µM
How it was run: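 Quantitative HTS format: compounds meet 15 uM recombinant K18 P301L tau and Alexa 594-tau tracer in 100 mM sodium acetate pH 7; 20 uM heparin triggers fibrillization at 37 C over 6 hr; FP gives the signal.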
On the % scale 0 is the no-effect control and ±100 the full control effect; potency means the concentration at half of the fitted maximal effect; tags describe the fitted curve by direction and shape.

For `COC(=O)c1ccc(COc2ccccc2/C=N/NS(=O)(=O)c2ccc(C)cc2)cc1`, which Potency is on record?
The Potency was inconclusive [inhibitor, single point].

`CCCCCCCCCCCCCCC(F)C(=O)O` (stereo unspecified) was tested. Which Potency did it give?
The Potency was inconclusive [inhibitor, single point].

`O=c1c2ccccc2oc2cc(O)c(C3COCC(CO)C(O)C(O)C3O)c(O)c12` (stereo unspecified) was tested. Which Potency did it give?
Its Potency is “inactive”.

How did the Potency turn out when `CC(=O)Nc1ccc(C2=NN(c3ccccc3)C(c3cccs3)C2)cc1` (stereo unspecified) was run?
Its Potency is inconclusive [inhibitor, single point].

Which Potency does the source give for `COC(=O)c1cc2sc(Cl)cc2n1Cc1nc(-c2ccccc2)oc1C` here?
The Potency was “inactive”.

How did the Potency turn out when `COc1cc([N+](=O)[O-])c(C(=O)N2CCOCC2)c([N+](=O)[O-])c1` was run?
The Potency was “inactive”.

How did the Potency turn out when `Cc1cc(O)ccc1N=Cc1c(C(F)(F)F)[nH][nH]c1=O` was run?
Its Potency is active: 31.6 µM.

`CC1(CC(=O)N/N=C/c2cc(Br)c(O)cc2O)OCCO1` was tested. Which Potency did it give?
Its Potency is “inactive”.

How did the Potency turn out when `O=C(Nc1ccccc1)Nc1ccc(-n2ccc(C(F)(F)F)n2)cc1` was run?
Its Potency is inconclusive [inhibitor, partial curve].

`COc1cc(C(C[N+](=O)[O-])c2c(C)[nH]c3ccccc23)cc(OC)c1OC` (stereo unspecified) was tested. Which Potency did it give?
Its Potency is inconclusive [activator, partial curve, poor fit].

With `O=C(Nc1nc2ccccc2s1)c1cccc(S(=O)(=O)N2CCc3ccccc32)c1` as the compound, how does the Potency read?
Its Potency is inconclusive [inhibitor, partial curve].

Which Potency does the source give for `COC(=O)CCC(=O)OC1(C)C(=O)C=C2C=C(c3ccsc3)OC=C2C1=O` (stereo unspecified) here?
The Potency was inconclusive [inhibitor, single point].

Which Potency does the source give for `CCOC(=O)c1ccc(N=c2scc(C)n2CC)cc1` here?
The Potency was inconclusive [activator, single point].

`CCOc1ccc(CN(C)CCc2ccccn2)cc1` was tested. Which Potency did it give?
Its Potency is “inactive”.

For `COc1ccc([N+](=O)[O-])cc1N(CC(=O)Nc1ccccc1C(=O)NC(C)C)S(C)(=O)=O`, which Potency is on record?
The Potency was “inactive”.

For `CC(=O)Nc1ccc(S(=O)(=O)N2CCN(c3nc(NC4CCCC4)c4ccccc4n3)CC2)cc1`, which Potency is on record?
Its Potency is active: 22.4 µM.

For `Brc1cccc(-c2n[nH]c(-c3ccccc3)n2)c1`, which Potency is on record?
The Potency was inconclusive [inhibitor, single point].

For `COc1ccc(NS(=O)(=O)c2cccc(NC(=O)NCCCl)c2)cc1`, which Potency is on record?
The Potency was inconclusive [inhibitor, single point].

Which Potency does the source give for `CC(=O)c1c(C)n(S(=O)(=O)c2ccc(Cl)cc2)c2ccc(NS(=O)(=O)c3ccc(Cl)cc3)cc12` here?
Its Potency is inconclusive [inhibitor, partial curve].

With `CC(C)c1ccc(OCC(=O)Nc2cc(-c3ccccc3)no2)cc1` as the compound, how does the Potency read?
Its Potency is inconclusive [inhibitor, partial curve].

How did the Potency turn out when `Nc1nc2c([nH]c(=O)n2C2OC(CO)C(O)C2O)c(=O)[nH]1` (stereo unspecified) was run?
Its Potency is “inactive”.

With `O=C(O)c1ccc(-c2ccc(/C=C3\NC(=O)N(Cc4ccc(Cl)cc4)C3=O)o2)cc1Cl` as the compound, how does the Potency read?
The Potency was inconclusive [inhibitor, partial curve].

With `COc1cccc(Nc2nc(-c3cccc(N4C(=O)c5ccccc5C4=O)c3)cs2)c1` as the compound, how does the Potency read?
Its Potency is inconclusive [activator, partial curve].

For `O=C(CSc1nc(-c2ccco2)cc(C(F)(F)F)n1)Nc1ccc(C(=O)N2CCCCC2)cc1`, which Potency is on record?
The Potency was “inactive”.

For `CN1c2ccccc2C(C)(C)C12C=Cc1cc(O)ccc1O2` (stereo unspecified), which Potency is on record?
Its Potency is “inactive”.

How did the Potency turn out when `CC[N+](CC)(CC)CC(=O)Nc1c(C)cccc1C` was run?
Its Potency is inconclusive [inhibitor, partial curve].

`COc1ccc(N2Cc3cccc(C(=O)Nc4ccc(Cl)cc4)c3C2=O)cc1` was tested. Which Potency did it give?
Its Potency is inconclusive [inhibitor, partial curve, poor fit].

Which Potency does the source give for `N#C/C(C(=O)c1ccccc1)=C1/SC=C(N)N1c1ccccc1` here?
Its Potency is inconclusive [inhibitor, single point].

For `CCOc1ccc(-c2nonc2NC(=O)c2oc3cc(C)ccc3c2C)cc1OCC`, which Potency is on record?
Its Potency is inconclusive [inhibitor, partial curve].

Which Potency does the source give for `Cc1cc(NC(=O)CSc2nc3c(sc4ccccc43)c(=O)n2CCc2ccccc2)n[nH]1` here?
Its Potency is inconclusive [inhibitor, partial curve].

With `CCOC(=O)C1CCCN(C(=O)c2ccc3c(c2)sc2nc(-c4ccc(C)cc4C)cn23)C1` (stereo unspecified) as the compound, how does the Potency read?
Its Potency is inconclusive [inhibitor, partial curve, poor fit].

How did the Potency turn out when `Fc1ccc(N=C2NN=C(c3cc(F)ccc3F)CS2)cc1` was run?
The Potency was inconclusive [inhibitor, partial curve].

For `CC1(C)CC(=O)C(C(C2=C(O)CC(C)(C)CC2=O)c2ccco2)C(=O)C1` (stereo unspecified), which Potency is on record?
The Potency was inconclusive [inhibitor, single point].

With `Cc1cc(Cl)ccc1NC(=O)CN1C(=O)COc2ccc(S(=O)(=O)Nc3ccccc3)cc21` as the compound, how does the Potency read?
The Potency was inconclusive [inhibitor, single point].

With `OCCC1CN(Cc2ccc3nonc3c2)CCN1Cc1ccsc1` (stereo unspecified) as the compound, how does the Potency read?
The Potency was “inactive”.

Which Potency does the source give for `COc1ccccc1[C@H]1C(c2cccc(Cl)c2)=NN(c2ccccc2)[C@@H]1CO` here?
Its Potency is inconclusive [activator, full curve, poor fit].

With `Cc1cc(C)[n+](-c2ccc(Oc3ccccc3)c(S(=O)(=O)[O-])c2)[nH]1` as the compound, how does the Potency read?
The Potency was “inactive”.

Which Potency does the source give for `CC(C)(C)OC(=O)N1CCC(c2c(C(=O)NCCN3CCOCC3)cnn2-c2ccc(F)cc2)CC1` here?
The Potency was “inactive”.

Which Potency does the source give for `Cc1ccc(CCNC(=O)c2nnn(-c3cccc(C)c3)c2N)cc1` here?
The Potency was inconclusive [inhibitor, single point].

How did the Potency turn out when `Cc1ccc(S(=O)(=O)Nc2ccccc2CNc2ccc(Br)cn2)cc1` was run?
Its Potency is inconclusive [inhibitor, partial curve].

For `Cc1ccc2[nH]c(=O)c(CN(CC3CCCO3)C(=S)NCc3ccco3)cc2c1` (stereo unspecified), which Potency is on record?
The Potency was inconclusive [activator, single point].

`Cc1ccc(S(=O)(=O)n2ccc(-c3ccc(OCc4c(F)cccc4Cl)cc3)n2)cc1` was tested. Which Potency did it give?
Its Potency is inconclusive [inhibitor, partial curve].

`COc1cc(NC(=O)CSc2nc(-c3ccc(C(C)C)cc3)no2)cc(OC)c1` was tested. Which Potency did it give?
Its Potency is inconclusive [inhibitor, partial curve, poor fit].

How did the Potency turn out when `O=C(Nc1cccc(Cl)c1)N1CCSc2cc(Cl)ccc21` was run?
Its Potency is inconclusive [inhibitor, single point].

With `COc1ccc(C2=Nc3ccc(OC(F)(F)F)cc3NC(c3cccnc3)=N2)cc1` as the compound, how does the Potency read?
Its Potency is “inactive”.

Which Potency does the source give for `Cc1ccc(CNC(=O)c2cc3ccc4cccnc4c3[nH]2)cc1` here?
Its Potency is inconclusive [inhibitor, partial curve, poor fit].

Which Potency does the source give for `Cc1cc(/C=N/NC(=O)CC#N)c(C)n1-c1ccc([N+](=O)[O-])cc1` here?
The Potency was inconclusive [inhibitor, single point].

For `COc1ccc(/C=N/NC(=O)c2ccc3ccccc3c2)cc1OS(=O)(=O)c1ccc(NC(C)=O)cc1`, which Potency is on record?
Its Potency is active: 12.6 µM.

`COc1ccc(OC(=O)c2ccc(Cl)cc2)c(C(C)=O)c1` was tested. Which Potency did it give?
Its Potency is inconclusive [inhibitor, single point].

For `O=C(CCc1ccccc1O)N/N=C/c1ccc(Sc2cccc3cccnc23)o1`, which Potency is on record?
The Potency was inconclusive [inhibitor, partial curve].

How did the Potency turn out when `COc1cccc(NC(=O)Nc2nnc(CC(=O)NCc3ccccc3)s2)c1` was run?
Its Potency is inconclusive [inhibitor, partial curve].

How did the Potency turn out when `Cc1c(C(=O)N2CCCCC2)oc2ccc(S(=O)(=O)N3CC(C)CC(C)C3)cc12` (stereo unspecified) was run?
Its Potency is active: 20 µM.

With `CCCN1C/C(=C/c2ccc3c(c2)OCO3)C(=O)/C(=C/c2ccc3c(c2)OCO3)C1` as the compound, how does the Potency read?
The Potency was inconclusive [inhibitor, partial curve, poor fit].

With `Fc1ccc(C2CCCN2Cc2nc(-c3cnccn3)no2)cc1` (stereo unspecified) as the compound, how does the Potency read?
Its Potency is “inactive”.

`CC(=O)c1ccccc1OC(=O)c1ccc([N+](=O)[O-])o1` was tested. Which Potency did it give?
The Potency was inconclusive [inhibitor, partial curve].

Which Potency does the source give for `NC(=O)C1=C[C@@H](c2ccc(Br)cc2)C[C@@H](OCCCCO)O1` here?
The Potency was inconclusive [inhibitor, single point].

How did the activity, negative = inhibition turn out when `CO[C@H]1COC(=O)[C@H](C)NC(=O)C/C=C\[C@@H](C)[C@@H](NS(=O)(=O)c2ccc(C)cc2)COC(=O)[C@H](OCc2ccccc2)/C=C\[C@@H]1C` was run?
Its activity, negative = inhibition is inactive: 4.05% [at 11.6 µM].

`CN(C)S(=O)(=O)c1cccc(NC(=O)CSc2nnnn2-c2ccccc2)c1` was tested. Which Potency did it give?
The Potency was inconclusive [inhibitor, single point].

Which Potency does the source give for `COC(=O)c1ccccc1C(=O)N1CCCC(CCC(=O)NCc2ccc(F)c(F)c2)C1` (stereo unspecified) here?
Its Potency is “inactive”.

`Fc1cccc(Cl)c1CNc1ccc(N2CCCC2)cc1` was tested. Which Potency did it give?
Its Potency is active: 11.2 µM.

With `O=C1C(C=Nc2ccccc2O)=C(O)c2ccccc21` as the compound, how does the Potency read?
Its Potency is “inactive”.

With `Cc1ccc(N2C(=O)CS(=O)(=O)C23C(=O)N(Cc2ccccc2C)c2ccccc23)cc1Cl` (stereo unspecified) as the compound, how does the Potency read?
The Potency was inconclusive [inhibitor, single point].

Which Potency does the source give for `COc1cc(OC)cc(C(=O)Nc2ccc(-c3nc4ccccc4s3)c(C)c2)c1` here?
Its Potency is inconclusive [inhibitor, full curve, poor fit].

How did the Potency turn out when `Cc1sc2nc(CN(Cc3cccs3)C(=O)C3CC3)[nH]c(=O)c2c1C` was run?
Its Potency is “inactive”.

For `O=C(CCC(=O)Nc1ccc(F)cc1)N/N=C/c1c[nH]c2ccccc12`, which Potency is on record?
Its Potency is inconclusive [activator, single point].

How did the Potency turn out when `Cc1ccc(-c2nc(C(=O)N3CCN(c4ccccc4)CC3)c3n2CCCCC3)cc1` was run?
The Potency was inconclusive [activator, partial curve].
